Experimental data published in the RNAGym collection of RNA variant scans (doi:10.1073/pnas.2313332121).
Variants at the background level are over-represented here.

B1: TPR 5TU (parent)
chain: GGAUCUUCUCGAUCUAACAAAAAAGACAAAUCUGCCACAAAGCUUGAGAGCAUCUUCGGAUGCAGAGGCGGCAGCCUUCGGUGGCGCGAUAGCGCCAACGUUCUCAACUAUGACACGCAAAACGCGUGCUCCGUUGAAUGGAGUUUAUCAUG

Variants of: B1
Assay: polymerase ribozyme fitness, log enrichment relative to wild type (log ratio); higher = more active; in vitro selection for triplet polymerase activity
In short: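 Genotype fitness is the logarithm of its enrichment divided by wild-type enrichment, using inverse-variance-weighted averages of replicates. That logarithm is base 2. Enrichment was measured by Illumina sequencing of input and output libraries from one triplicate in vitro selection round, with frozen incubation at −7 °C, on PCR-built, transcribed mutant libraries of each subunit of a heterodimeric triplet polymerase ribozyme, retaining genotypes with ≥10 input reads and ≥1 read per output.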

| Variant | polymerase ribozyme fitness (log ratio) |
| --- | --- |
| C5A U15C U56A C105G A107C G117U U139C G143C U148C | ≤ -4.2 |
| A3U C36U U56G A60C U61G C79U C93U C99U G112C U144A A150C | ≤ -4.2 |
| A3G A30U G48C C63G G92A C96G C105G C108U | ≤ -4.2 |
| A3G G71C C96A | ≤ -4.2 |
| U4C A37U G50U C95U G128A | ≤ -4.2 |
| C5A U7G G88U C105G G136A A137U G152U | ≤ -4.2 |
| C5G A16C C32G A47G A73U C75U C132U | ≤ -4.2 |
| A3U C18U G42A A91G A107U | ≤ -4.2 |
| A3G U55A C79G G92U C95U A98G C99U U104G C108U U127C G128A | ≤ -4.2 |
| A3U C8G C14G A40C G62C U78C C103A U127C G133U | ≤ -4.2 |
| U4C G59C C69U C93G G100A G124U | ≤ -4.2 |
| U4G A24U A30C C72G C93A C103G C123U | ≤ -4.2 |
| U4A C14A U15G A28U C35U G46U C95U | ≤ -4.2 |
| U4C A23G U53G U56A G92C C95A | ≤ -4.2 |
| U4C C10U A20C A29U A52C A138C G140U | ≤ -4.2 |
| A3U U55A G68A G86U U90A A97U U101A A137C U145C | ≤ -4.2 |
| U4G A22C A23C U55A G84A G126U | ≤ -4.2 |
| U4G A23G C32U G62C G94C G126A G143U | -4.05 |
| A3U A52C G86U A119U G141U | -3.78 |
| U4C A16G C85A C99G G141C | ≤ -4.2 |
| U4G U7A G11U A26G A47C G80A C85U G140A | ≤ -4.2 |

| Variant | polymerase ribozyme fitness (log ratio) |
| --- | --- |
| A3U C27U A29G G70C C93G | ≤ -4.2 |
| U4C C10G C27A A47C U56C U78A G92U A115U G140U | ≤ -4.2 |
| A3U G70A A89C U139C U144A | ≤ -4.2 |
| U4C C57A C95A C96U G141A | -3.87 |
| U4G A22U C38U G84A A138G | ≤ -4.2 |
| U4A C10A C85G A115U | ≤ -4.2 |
| U4A A21G A26U U55C G81A G86C G143C | ≤ -4.2 |
| U4A G68A C93U C108U C116A U135A G140C | ≤ -4.2 |
| C5A C57U G71C G92A A150C | ≤ -4.2 |
| U4C A16G A52U G59C G68A A91G G126A U130A | ≤ -4.2 |
| C5A C76U | -0.144 |
| U4C A39G G67C C85A G88C A89G G94A U139G | ≤ -4.2 |
| A3U A30G C35G A39U G59A A60C C87U U134A | ≤ -4.2 |
| C5A C85U C93U | -1.66 |
| A3U U56C C87U A89G U101G | -2.52 |
| A3U C5G U7C A30C C36U U55A A60G C75U C87G U101A A119C C123G G143U | ≤ -4.2 |
| A3U U4A C5U C14G A16U A30C G83U G100A | ≤ -4.2 |
| U4A A29U G86C G141C | ≤ -4.2 |
| A3U A49U U55C A91U | ≤ -4.2 |
| A3G G48U C79G A89C U111G | ≤ -4.2 |
| C5A U6A A16C A21G U44G G59U U109C G117U | ≤ -4.2 |

| Variant | polymerase ribozyme fitness (log ratio) |
| --- | --- |
| U4C C35G A47C U53A C87U G100C C123U | ≤ -4.2 |
| A3U C36U | -2.21 |
| A3G G11A A17G A22C A60U U82C C87U C96U | ≤ -4.2 |
| A3G C10G A19U U55A C87A C93U G100C U104G A138U U146C | ≤ -4.2 |
| A3U C43A G84A A106G G140C U148A | ≤ -4.2 |
| A3G A89G C93U A137C A138U G140A | ≤ -4.2 |
| C5G A24U C35G C76A C96A C108U A121U G141U | ≤ -4.2 |
| U4C A12U C57G C85U A98G G128U | ≤ -4.2 |
| U4G C8A A28U C43U C96U A115G G141U | ≤ -4.2 |
| C5G A28C U44A G46A A60C U61G C96G G128A | ≤ -4.2 |
| U4A U6A C36U C57G G68U C79G A91C | ≤ -4.2 |
| A3G U13A U56A C96A A138G | ≤ -4.2 |
| C5A A19C C35G A37U A39C U55A G112C | ≤ -4.2 |
| A3G U7G G46A A47U C51U G94C C125U G143A | ≤ -4.2 |
| U4A A16C C76G A115G G143A | ≤ -4.2 |
| U4G U6G U45A A52G G59A C72U C85A C99U U134A U135C U145G | ≤ -4.2 |
| U4G G50C C69G A73U C85U A91G A115G G143C | ≤ -4.2 |
| A3G U31G C75U G83C | ≤ -4.2 |
| U4G U9A A22G C51U U53A G86A A147C | ≤ -4.2 |
| C5A C14A A29C U56A C95A G126U G136C | ≤ -4.2 |
| A3G U6G U90G C103U G141C | ≤ -4.2 |

| Variant | polymerase ribozyme fitness (log ratio) |
| --- | --- |
| U4G C93U | -0.624 |
| C5A C8G G88A A91U C116A A119G | ≤ -4.2 |
| U4A A37U G94C A150G | -4.19 |
| A3U C69G C93U G140U | ≤ -4.2 |
| U4A U6A A28U A30G U44A G59C A60G C87U A89U A97C A107U | ≤ -4.2 |
| A3G U4A C54U U102G C125G | -3.99 |
| A3U G42A C85G U102C C103A | ≤ -4.2 |
| A3G C14G A147U | -2.9 |
| U4C G100A C116G A138C | ≤ -4.2 |
| U4G U6C A19U C85U C103G | ≤ -4.2 |
| U4G C27U A97U | -2.22 |
| U4A A12C U55A G84U | -2.4 |
| C5A C35A U61A G81C C95G A106G A107U U139G A147G | ≤ -4.2 |
| C5A A17G C79G C96U U109G | ≤ -4.2 |
| A3U A47C G50C G86C A137C G143U | ≤ -4.2 |
| U4C A28U C38G | ≤ -4.2 |
| C5A U45C A64U C75A G141C U145C A150U | ≤ -4.2 |
| A3G C93A C108U C125G A142G U145G U146A | ≤ -4.2 |
| A3U C14G C32U C51U U55G C63U A73C A89C G143A | ≤ -4.2 |
| A3U C18A A22U A37G C85U | -3.29 |
